Data on 83 variants can be found in the RNAGym collection of RNA variant scans (doi:10.1093/nar/gkz1192).

The chains are these.
B1: CPEB3 Ribozyme (parent)
chain: UAACAGGGGGCCACAGCAGAAGCGUUCACGUCGCAGCCCCUGUCAGAUUCUGGUGAAUCUGCGAAUUCUGCUGUAUAUCUC

The source gives no read counts; variants with many changes may rest on few reads.

The data set covers variants of B1. Nature of the data set: self-cleavage, relative activity (ratio to wild type); higher = more cleavage; in vitro, sequencing. Summed up: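 Relative activity was defined as the cleaved/total read fraction for a variant divided by the same fraction for the unmutated ribozyme. CPEB3 self-cleaving ribozyme libraries were made by rounds of error-prone PCR, barcoded, and transcribed in vitro with T7 RNA polymerase for 5 hours at 37°C, and cleavage ran through transcription plus a 15 min DNase I step before EDTA. Illumina sequencing of template-switched reverse transcripts gave the reads, and DNA sequencing mapped the barcodes. Averages come from three batches, using variants with at least 5 reads.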
Take A5U C11A C23U U51C A64U U78C U80C: the self-cleavage came to 0.06.

With G6A A18U C59A, the self-cleavage was found to be 0.26.

Turning to G6A A28C C39A A64G U69A, the self-cleavage worked out at 0.05.

Consider A5U U49C U51C A56U U80C, for which the self-cleavage came out at 0.49.

On to A5U U51C U60A A75G, for which the self-cleavage was 0.32.

In the case of G6A A18G G24A C40U U54G, the self-cleavage turned out to be 0.05.

Regarding A5U G10A U26C A28G U58C U80C, the self-cleavage amounted to 0.06.

For A5U A20G A57G, the self-cleavage was found to be 0.53.

With G6A A20G U76C, the self-cleavage worked out at 0.09.

Turning to G6A U58C U60C A77G, the self-cleavage turned out to be 0.05.

G6A A13C U51C C81A: the self-cleavage stood at 0.1.

For the variant G6A U26A G52A A56U U74C A75G, the self-cleavage came out at 0.07.

Take G6A G9U U51C U67C: the self-cleavage was found to be 0.1.

For the variant A5U G42U U74C, the self-cleavage was found to be 0.24.

Consider G6A A28U U72A, for which the self-cleavage was 0.17.

As for G6C U51C A56G G61A, the self-cleavage is 0.08.

Regarding G6A G16A A45G, the self-cleavage worked out at 0.34.

Consider A5U U25C A28C A64U A75G, for which the self-cleavage was 0.16.

On to A5U A20G U51A, for which the self-cleavage turned out to be 0.86.

As to G6A A21U U49C U67C, the self-cleavage came out at 0.11.

In the case of G6A A18U U69A, the self-cleavage is 0.35.

With A5U G9U U26C U41A U80C, the self-cleavage is 0.07.

Turning to A5U A20G U25C A56G U78C C79U, the self-cleavage worked out at 0.32.

For the variant G6A G9A C23U A35G U58C G70A U74G, the self-cleavage worked out at 0.02.

For the variant G6A A35G U49C, the self-cleavage was 0.23.

Consider G6C U54A U69A, for which the self-cleavage was 0.22.

A5U U48C U51C: the self-cleavage worked out at 0.69.

As for G6A U26C U41A, the self-cleavage worked out at 0.25.

Consider A5U C11A A15G A65G U66A, for which the self-cleavage was 0.11.

As for G6C A20G U26C U43G U51C A57G A77G, the self-cleavage was 0.

In the case of A5U G30U G33A U54G U76C, the self-cleavage stood at 0.13.

In the case of A5U G30A U41A A77G U78C, the self-cleavage turned out to be 0.11.

For the variant G6A U54C U67A U74A, the self-cleavage is 0.11.

For G6C U26A U48C U67A, the self-cleavage was found to be 0.12.

With G6A U51G A64G U69A U78C, the self-cleavage came out at 0.06.

Consider G6A A13U U49C, for which the self-cleavage turned out to be 0.66.

For G6A A28U A65G U72C G73A, the self-cleavage was found to be 0.07.

Turning to A5U G6A A47G C50A U60C, the self-cleavage came out at 0.09.

As for G6A G24A U76C, the self-cleavage came to 0.06.

For A5U G7U A20G G30U U54A C71U U72A, the self-cleavage was 0.04.

Turning to A5U A21U C32G U67C, the self-cleavage was 0.06.

On to G6A A56G U66C U72C, for which the self-cleavage amounted to 0.07.

In the case of G6A A75U U80C, the self-cleavage worked out at 0.44.

As to G6A A15G U31C U41A U72C, the self-cleavage worked out at 0.13.

Regarding A5U A20G C40A A64G U66C, the self-cleavage amounted to 0.28.

Consider A5U A47G U48C G52U, for which the self-cleavage was 0.29.

For G6A G10A A45U A56G, the self-cleavage stood at 0.34.

Regarding A5U U25A U51A A57G U60A, the self-cleavage came to 0.12.

For G6A C12U U67C, the self-cleavage turned out to be 0.08.

As for A5U U26C A28G U31A U78G, the self-cleavage was found to be 0.11.

Turning to A5U G10C A28G A64G U74A, the self-cleavage came to 0.04.

On to A5U U26G C27U U41A U51C U78C, for which the self-cleavage turned out to be 0.07.

On to A5U A35U U54C U80C, for which the self-cleavage came out at 0.67.

Consider G6A C40U G42A U48C, for which the self-cleavage was determined as 0.06.

In the case of G6C A13G A28G U67C, the self-cleavage amounted to 0.31.

As for A5U G9A U78C C79U, the self-cleavage was found to be 0.19.

As for A5U G53A A56G U78A, the self-cleavage is 0.52.

Consider G6A G9U U60C C62U U76C C79A, for which the self-cleavage came out at 0.04.

With G6A A13G A20G U26C U80A, the self-cleavage was determined as 0.52.

Take A5U C40G A47U U69C U78C: the self-cleavage was 0.1.

As for G6A A47G U49A A56C U74C A75G, the self-cleavage stood at 0.05.

As to A5U C11G A28U, the self-cleavage is 0.46.

On to A5U U25G U41C, for which the self-cleavage turned out to be 0.33.

As for A5U U49C U54C U66C U80A, the self-cleavage was determined as 0.17.

With G6A U26C A28G G55U A57G, the self-cleavage came to 0.23.

For A5U A20U U48A, the self-cleavage was 0.11.

On to G6A A13G U41C A65G U80C, for which the self-cleavage amounted to 0.1.

For the variant A5U A21G A28U A35G U67C, the self-cleavage was found to be 0.38.

As for G6C A15G U31A A64U U72G, the self-cleavage turned out to be 0.1.

Take A5U A20G U25C U31C A35U U78A: the self-cleavage was 0.06.

Regarding G6C A21G U72A, the self-cleavage was determined as 0.07.

As to G6A C37U U51C, the self-cleavage came out at 0.21.

For A5U U25C U49A U58C U66C A77G, the self-cleavage amounted to 0.05.

As to G6A C40U U51C A56G, the self-cleavage worked out at 0.09.

As to G6A G16A C39U U60C U67C A75G, the self-cleavage stood at 0.04.

For the variant G6A U31C C40U, the self-cleavage was 0.35.

Regarding A5U G6U U72A, the self-cleavage amounted to 0.1.

For the variant A5U U25C C39G U41C A64G, the self-cleavage came to 0.09.

Consider G6A C27U U31C A45G U60A C62U, for which the self-cleavage turned out to be 0.04.

In the case of A5U G6C A35C U67C U80C, the self-cleavage turned out to be 0.38.

Consider A5U C12U U26C U76A, for which the self-cleavage came to 0.93.

As for A5U U69C U76G, the self-cleavage amounted to 0.96.

As to A5U G8C A15U U69A, the self-cleavage stood at 0.38.
